Values joined by “and” are separate entries in the source; they are usually repeats but may differ in a detail not shown here. Equal values may be shown once. For some of these results: The name of at least one read-out is uncertain. Some of these results come from one statement about several compounds together.
Legend:
[1] = system: female Aedes aegypti adults; test: High-throughput in vitro screening assay, spatial repellency; assay type: in vivo; details: dose per filter paper surface area, 95% CI
Source text: A high-throughput screening method for evaluating spatial repellency and vapor toxicity, described by Jiang S., et al. (2019, “High-Throughput Screening Method for Evaluating Spatial Repellency and Vapour Toxicity to Mosquitoes,” Med. Vet. Entomol. 33: 388-396), was used for this study. As shown in FIG. 2 of Jiang S., et al., assay tubes were constructed by covering 12.5 cm glass tubes on one side with netting secured by a rubber band. The tubes were used in horizontal orientation. Adult mosquitos 2-7 days old were anesthetized on ice for approximately 5 minutes and 16 females were transferred to each tube. The other end of the tube was then closed with netting and a rubber band. […]
Assay tubes were placed on a white polystyrene platform with wooden sticks glued flatly across it to prevent the tubes from rolling. […] At each time point, the number of mosquitos that remained on the treated side was visually assessed and recorded. […]
For the high-throughput in vitro screening assays, analyses were conducted with R version 4.2.2 statistical software (R Core Team, 2022, “R: a language and environment for statistical computing. R foundation for statistical computing,” Vienna, Austria). Concentrations were calculated in terms of filter paper surface area (μg/cm^2) for repellency assays and in terms of assay tube volume (μg/cm^3) for knockdown assays. […]

[2] = system: female Aedes aegypti adults; test: High-throughput in vitro screening assay, knockdown and mortality; details: 95% CI; for LD50 (24 h), half-lethal dose: mortality after 24 h
[3] = system: Aedes aegypti larvae central nervous system; test: Neurophysiological experiment, nerve firing of mosquito central nervous system; details: 100 μM on central nervous system of 4th instar larvae
Protocol: Neurophysiological Experiment—Action on Mosquito Central Nervous System All compounds were screened at 100 μM on the central nervous system of 4th instar Aedes aegypti larvae. Nerve firing was reported as the percentage firing compared to a pre-application baseline period that was determined approximately 3 minutes prior to drug application, similar to methods outlined in Norris, E. J. and Bloomquist J. R. (2021, “Recording central neurophysiological output from mosquito larvae for neuropharmacological and insecticide resistance studies,” J. Insect Physiol. 135: 104319). […] Compound potency was characterized by “time-to-nerve block” defined as the first time point where significant nerve block was observed compared to the vehicle control via a Student T-test, p<0.05 as shown in Table 1 and FIG. 2.
Statistical Analyses: Student's T-test was used to compare the means between tested compound and DEET and Icaridin in the arm-in-cage in vivo assay and neurophysiological study.

| Compound | LD50 (24 h), half-lethal dose [2] [µg/mL] | further results |
| --- | --- | --- |
| CCN(CC)C(=O)c1cccc(C)c1 [DEET, N,N-diethyl-meta-toluamide, reference compound] | 2.42 | RD50 (30 min), half-repellent dose [1]: 42.56 μg/cm^2 and 41.48 (30.17- μg/cm^2 |
| COC(=O)c1ccccc1OC [M2MOB, methyl 2-methoxybenzoate] | >7 |  |
| COC(=O)c1ccccc1[N+](=O)[O-] [M2NB, methyl 2-nitrobenzoate] | >7 |  |
| CC(C)COC(=O)c1ccccc1 [iBB, iso-butyl benzoate] | 5.09 |  |
| CC(C)CCOC(=O)c1ccccc1 [iPeB, iso-pentyl benzoate] |  | Time to nerve block [3]: less than 30 min |
| CCCCOC(=O)c1ccccc1 [nBB, n-butyl benzoate] | 4.05 | KD50 (30 min), half-knockdown dose ([2]; 30 min, dose per assay tube volume): 2.78 µg/mL and 2.81 µg/mL |
| CCCCCCOC(=O)c1ccccc1 [nHB, n-hexyl benzoate] | 4.83 |  |
| CCCCCOC(=O)c1ccccc1 [nPeB, n-pentyl benzoate] | 5.07 |  |
